{"source": "PubChem BioAssay AID1461", "about": "(National Center for Advancing Translational Sciences (NCATS), 2008)", "note": "About 2,300 (1%) of roughly 220,000 compounds were called active. Inconclusive results, whose numbers are uncertain, are shown with a selection of clear calls. The call rests on the fitted dose curve; in most records, active means well fitted inhibition curve with a large enough effect; inconclusive means small, poorly fitted or top-dose-only effect, or effect the other way; inactive means no such curve, though single readings can be large or run the other way. Potencies of inconclusive entries are left out as doubtful fits. On the % scale 0 is the no-effect control and ±100 the full control effect; potency means the concentration at half of the fitted maximal effect; tags describe the fitted curve by direction and shape."}
{"molecular_target": "Neuropeptide S receptor (Homo sapiens) (UniProt Q6W5P4)", "sequence (Q6W5P4 whole entry, looked up)": "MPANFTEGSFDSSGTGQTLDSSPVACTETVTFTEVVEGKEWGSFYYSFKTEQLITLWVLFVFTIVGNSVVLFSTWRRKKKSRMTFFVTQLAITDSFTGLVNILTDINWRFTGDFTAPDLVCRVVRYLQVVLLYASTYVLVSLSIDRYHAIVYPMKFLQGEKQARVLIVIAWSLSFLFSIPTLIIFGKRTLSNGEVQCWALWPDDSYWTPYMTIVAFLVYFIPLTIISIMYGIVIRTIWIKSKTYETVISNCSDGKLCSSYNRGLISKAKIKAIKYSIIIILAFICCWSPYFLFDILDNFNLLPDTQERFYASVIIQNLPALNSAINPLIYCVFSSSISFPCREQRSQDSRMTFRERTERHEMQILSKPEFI", "experiment": "qHTS Assay for Antagonists of the Neuropeptide S Receptor: cAMP Signal Transduction; further: nearly all actives have a fitted effect of over 50% in size", "settings": "CHO-NPSR cells, cAMP TR-FRET, antagonist mode; activity change, negative = inhibition: at 38.3 µM (top of the series) unless noted"}
{"compound": "Cc1ccc(-c2nnc(N3CCN(c4ccccn4)CC3)c3ccccc23)cc1", "Potency": "inconclusive [inhibitor, partial curve]"}
{"compound": "COc1cc(/C=C2\\SC(=S)N(N(C)c3ccccc3)C2=O)ccc1O", "activity change, negative = inhibition": "inactive: 56.2%"}
{"compound": "Cc1cc(OCC(=O)Nc2cc(-c3nn4c(C)nnc4s3)ccc2C)ccc1Cl", "Potency": "inconclusive [inhibitor, single point]"}
{"compound": "CC(=O)/C(=N\\Nc1ccccc1Cl)Sc1nnc(-c2ccccc2)n1-c1ccccc1", "Potency": "inconclusive [inhibitor, single point]"}
{"compound": "CC(=O)Nc1ccc(NC(=O)Nc2cccc(C)c2C)cc1", "activity change, negative = inhibition": "inactive: 7.56%"}
{"compound": "O=C(C1CCCO1)N1CCN(Cc2nc3ccccc3c(=O)[nH]2)CC1", "note": "(stereo not drawn)", "activity change, negative = inhibition": "inactive: -4.14% [at 46.1 µM]"}
{"compound": "CCOc1ccc2[nH]c(=O)c(CN(CCO)C(c3nnnn3C3CCCCC3)C(C)C)cc2c1", "note": "(stereo not drawn)", "Potency": "inconclusive [inhibitor, partial curve]"}
{"compound": "COC(=O)[C@@H](NC(=O)Nc1cc(Cl)ccc1C)C(C)C", "Potency": "inconclusive [inhibitor, single point]"}
{"compound": "Cc1cc2cc(CNC(=O)NC3CCCCC3)ccc2n1C", "Potency": "inconclusive [activator, single point]"}
{"compound": "Cc1cc(SCC(=O)Nc2cccnc2Cl)nc2ccccc12", "Potency": "inconclusive [inhibitor, single point]"}
{"compound": "O=C(Oc1cccc2c(O)cccc12)c1ccccc1", "Potency": "inconclusive [inhibitor, single point]"}
{"compound": "CCNc1sc(C(=O)c2cccs2)c(N)c1-c1nc2ccccc2s1", "Potency": "inconclusive [inhibitor, partial curve]"}
{"compound": "COC(=O)c1cccc(COC(=O)c2ccccc2NC(=O)c2ccco2)c1", "Potency": "inconclusive [inhibitor, partial curve]"}
{"compound": "COc1cccc(-c2nnc(-c3ccc(C(F)(F)F)cc3)o2)c1", "Potency": "inconclusive [inhibitor, partial curve, poor fit]"}
{"compound": "COc1ccc(-c2nc(C)sc2CC(=O)O)cc1", "activity change, negative = inhibition": "inactive: -1.63% [at 46.1 µM]"}
{"compound": "O=C(N/N=C\\c1cc(Br)cs1)C1COc2ccccc2O1", "note": "(stereo not drawn)", "Potency": "inconclusive [inhibitor, partial curve, poor fit]"}
{"compound": "O=C(Cn1ncc2c1-c1ccccc1OC2)N(Cc1ccco1)C1CCCCC1", "Potency": "inconclusive [inhibitor, single point]"}
{"compound": "COc1ccc(NC(=O)C(c2ccccc2)N(C)C(=O)CNC(C)=O)cc1", "note": "(stereo not drawn)", "Potency": "inconclusive [inhibitor, single point]"}
{"compound": "CC(=O)Nc1ccc(SCC(=O)c2cc(C)n(CC(F)(F)F)c2C)cc1", "activity change, negative = inhibition": "inactive: -8.36% [at 46.1 µM]"}
{"compound": "CCn1c(CNC(=O)Cc2ccc(OC)cc2)nnc1SCC(=O)c1ccc(Br)cc1", "activity change, negative = inhibition": "inactive: -7.58% [at 46.1 µM]"}
{"compound": "CC1CCN(C(=O)C2CCN(C(=O)c3cc4sccc4n3Cc3ccc(F)cc3)CC2)CC1", "Potency": "inconclusive [inhibitor, single point]"}
{"compound": "O=C(NCCOc1nc(N2CCCCC2)nc(N2CCCCC2)n1)Nc1ccccc1", "Potency": "inconclusive [activator, single point]"}
{"compound": "CCOC(=O)c1ccc(NC(=S)NCc2ccco2)cc1", "activity change, negative = inhibition": "inactive: 39.3%"}
{"compound": "CC(C)N(Cc1nc(-c2ccccc2)no1)C(=O)c1ccc(Cl)cc1", "Potency": "inconclusive [activator, single point]"}
{"compound": "Oc1cc2ccccc2cc1-c1n[nH]c(=S)o1", "activity change, negative = inhibition": "inactive: -3.87% [at 46.1 µM]"}
{"compound": "O=C1c2ccccc2C(=O)c2c(Nc3ccc(CCO)cc3)ccc(O)c21", "Potency": "inconclusive [activator, partial curve]"}
{"compound": "Cc1ccc(Nc2c(-c3ccccn3)nc3ccc(C)cn23)cc1", "Potency": "active: 10 µM"}
{"compound": "C=C(CCC(=O)c1ccccc1)C(=O)c1ccccc1", "Potency": "inconclusive [inhibitor, single point]"}
{"compound": "Cc1ccc(CNC(=O)CSc2nc3n[nH]c(C)c3c(=N)n2-c2cccc(C)c2)cc1", "Potency": "inconclusive [inhibitor, single point]"}
{"compound": "Cc1ccc(S(=O)(=O)c2nc(S(C)(=O)=O)sc2N(C)C)cc1", "activity change, negative = inhibition": "inactive: -4.95% [at 46.1 µM]"}
{"compound": "O=C(Nc1ccc(S(=O)(=O)Nc2nccs2)cc1)c1cc(-c2ccccc2)nc2ccccc12", "activity change, negative = inhibition": "inactive: -25%"}
{"compound": "O=C(Nc1nc(=O)c2ccccc2s1)c1ccc(Cl)cc1", "Potency": "inconclusive [activator, single point]"}
{"compound": "O=c1oc2cc(O)ccc2cc1-c1ccc(F)cc1", "Potency": "inconclusive [inhibitor, partial curve]"}
{"compound": "CCOC(=O)C1=C(O)/C(=C/c2cccc(OC)c2O)N=C1C", "activity change, negative = inhibition": "inactive: -38.1%"}
{"compound": "COCCNC(=O)c1cc2nc(-c3ccccc3)cc(C)n2n1", "activity change, negative = inhibition": "inactive: 20.5%"}
{"compound": "O=C1N(Cc2ccccc2F)c2ccccc2C12OCCCO2", "activity change, negative = inhibition": "inactive: -1.99% [at 46.1 µM]"}
{"compound": "Cc1ccccc1C1C(C#N)=C2N=C(N)c3c(sc4c3CCCCC4)N2C2=C1C(=O)CC(C)(C)C2", "note": "(stereo not drawn)", "Potency": "inconclusive [inhibitor, partial curve]"}
{"compound": "CCCCCCc1cc2cc(C(N)=O)c(=N)oc2cc1O", "Potency": "inconclusive [inhibitor, single point]"}
{"compound": "CCOC(=O)c1c(NC(=O)c2ccccc2Br)sc2c1CCc1ccccc1-2", "Potency": "inconclusive [inhibitor, partial curve]"}
{"compound": "CN(C)c1ccc(C2(O)C(=O)c3ccccc3C2=O)cc1", "activity change, negative = inhibition": "inactive: 8.73%"}
{"compound": "CCCCNS(=O)(=O)c1ccc2nc(SCC(=O)Nc3sccc3C#N)[nH]c2c1", "Potency": "inconclusive [inhibitor, single point]"}
{"compound": "Oc1c(CN2CCN(c3ccccc3)CC2)cc(Br)c2cccnc12", "Potency": "active: 7.94 µM"}
{"compound": "Cc1cccc(OCC(=O)NNc2c3ccccc3nc3ccccc23)c1", "Potency": "inconclusive [inhibitor, partial curve]"}
{"compound": "Cc1ccc(OCC(O)CN2CCN(CC(O)COc3ccc(C)cc3Cl)CC2)c(Cl)c1", "note": "(stereo not drawn)", "Potency": "inconclusive [inhibitor, single point]"}
{"compound": "CC(C)CCN(CCC(C)C)CC(O)Cn1c2ccccc2c(=O)c2ccccc21", "note": "(stereo not drawn)", "Potency": "inconclusive [activator, partial curve]"}
{"compound": "CCOC(=O)c1c(C)nc2sc3c(=O)n(-c4ccc(OC)cc4)cnc3c2c1-c1ccc(OC)cc1", "Potency": "inconclusive [inhibitor, single point]"}
{"compound": "CC(C)(C)c1cc[n+](C2=C([O-])c3ccccc3C(=O)/C2=N\\S(=O)(=O)c2ccccc2)cc1", "Potency": "inconclusive [activator, partial curve]"}
{"compound": "N#Cc1ccc(NC(=O)c2nc(-c3ccccc3)n(-c3ccccc3)n2)cc1", "Potency": "inconclusive [inhibitor, partial curve, poor fit]"}
{"compound": "COc1ccc(N(C(=O)Cn2nnc3ccccc32)C(C(=O)NCc2ccco2)c2ccc(C)o2)cc1", "note": "(stereo not drawn)", "Potency": "inconclusive [inhibitor, partial curve]"}
{"compound": "CCCn1c(NC(=O)c2ccc(Cl)c(S(=O)(=O)N3CCCC3)c2)nc2ccccc21", "Potency": "inconclusive [inhibitor, partial curve]"}
{"compound": "Cc1ccc(OCc2nnc(SCc3ccc(C#N)cc3)n2-c2ccc(C)cc2)cc1", "Potency": "inconclusive [inhibitor, partial curve]"}
{"compound": "CCCOc1ccc(N2C(=O)CC(NCCNc3ccc([N+](=O)[O-])cn3)C2=O)cc1", "note": "(stereo not drawn)", "Potency": "inconclusive [inhibitor, single point]"}
{"compound": "COc1ccc(OC)c(C2C(C(=O)c3cc4ccccc4o3)=C(O)C(=O)N2c2cc(C)on2)c1", "note": "(stereo not drawn)", "Potency": "inconclusive [inhibitor, full curve, poor fit]"}
{"compound": "CCC(c1nnc(SCC(=O)Nc2cc(Cl)ccc2C#N)n1C1CCCCC1)N(C)C", "note": "(stereo not drawn)", "activity change, negative = inhibition": "inactive: 0.601%"}
{"compound": "Cc1cc(C)c2[nH]c(=O)c(CN(Cc3nnnn3C3CCCC3)C3CCCCC3)cc2c1", "Potency": "inconclusive [inhibitor, full curve]"}
{"compound": "CN(C)c1cccc(C(=O)n2cc(C(=O)c3cc(F)ccc3O)cn2)c1", "activity change, negative = inhibition": "inactive: -10.3% [at 46.1 µM]"}
{"compound": "O=C(C1CCN(S(=O)(=O)c2ccccc2)CC1)N(CCc1ccccc1)Cc1ccco1", "Potency": "inconclusive [inhibitor, partial curve]"}
{"compound": "N#Cc1nc(-c2cccs2)oc1NCc1ccccc1Cl", "Potency": "inconclusive [inhibitor, partial curve]"}
{"compound": "COc1ccc(N=Nc2nc3cc(Br)c(Br)cc3n2C)c(OC)c1", "Potency": "inconclusive [inhibitor, partial curve]"}
{"compound": "Cc1ccc(S(=O)(=O)NNC(=S)Nc2cccc(C)c2C)cc1", "Potency": "inconclusive [inhibitor, single point]"}
{"compound": "O=C(COc1ccccc1)NNc1c2ccccc2nc2ccccc12", "Potency": "active: 10 µM"}
{"compound": "O=S(=O)(c1ccc(F)cc1)n1ccc(-c2cnc(-c3ccccc3)s2)n1", "Potency": "inconclusive [inhibitor, single point]"}
{"compound": "CCOCC(=O)Nc1cc(C(F)(F)F)ccc1Oc1cccc(Br)c1", "Potency": "inconclusive [inhibitor, partial curve]"}
{"compound": "S=C(NCc1ccco1)N1CCN(C(c2ccccc2)c2ccccc2)CC1", "Potency": "inconclusive [inhibitor, single point]"}
{"compound": "COc1ccc(S(=O)(=O)N2CCCCC2)cc1NC(=O)CN(C)C1CCCCC1", "activity change, negative = inhibition": "inactive: -49%"}
{"compound": "O=C1NC(c2cc(Cl)cc([N+](=O)[O-])c2O)Nc2ccccc21", "note": "(stereo not drawn)", "Potency": "inconclusive [activator, partial curve]"}
{"compound": "CNCC(O)c1ccc(O)c(O)c1", "note": "(stereo not drawn)", "Potency": "inconclusive [activator, single point]"}
{"compound": "Cc1ccc(NC(=O)C2(N(C(=O)Cn3nnnc3N)c3ccc(C)cc3)CCCCC2)cc1", "Potency": "inconclusive [inhibitor, partial curve]"}
